Source: PubChem BioAssay AID1159614 (National Center for Advancing Translational Sciences (NCATS), 2016)
The campaign covered roughly 45,000 compounds. About 65 (0.1%) were called active. Calls come from the whole dose curve; as a rule, active = well fitted activation curve with a large enough effect; inconclusive = small, poorly fitted or top-dose-only effect; inactive = no such curve, though single readings can be large or run the other way. Some of the results follow.

target: Galactocerebrosidase (Homo sapiens) (UniProt P54803); experiment: A Novel Cell-Based Assay to Identify Small Molecules for B -Galactocerebrosidase; details: 145M-Twi-hGALC-G270D cells (Twitcher mouse brain line with human GALC G270D), HMU-beta-Gal fluorescence, 48 h; series mostly up to 57.5 µM; activation: at the top concentration; note: 0% is about no effect; nearly all actives have a fitted effect of over 65% in size
UniProt P54803, sequence (P54803 whole entry, looked up): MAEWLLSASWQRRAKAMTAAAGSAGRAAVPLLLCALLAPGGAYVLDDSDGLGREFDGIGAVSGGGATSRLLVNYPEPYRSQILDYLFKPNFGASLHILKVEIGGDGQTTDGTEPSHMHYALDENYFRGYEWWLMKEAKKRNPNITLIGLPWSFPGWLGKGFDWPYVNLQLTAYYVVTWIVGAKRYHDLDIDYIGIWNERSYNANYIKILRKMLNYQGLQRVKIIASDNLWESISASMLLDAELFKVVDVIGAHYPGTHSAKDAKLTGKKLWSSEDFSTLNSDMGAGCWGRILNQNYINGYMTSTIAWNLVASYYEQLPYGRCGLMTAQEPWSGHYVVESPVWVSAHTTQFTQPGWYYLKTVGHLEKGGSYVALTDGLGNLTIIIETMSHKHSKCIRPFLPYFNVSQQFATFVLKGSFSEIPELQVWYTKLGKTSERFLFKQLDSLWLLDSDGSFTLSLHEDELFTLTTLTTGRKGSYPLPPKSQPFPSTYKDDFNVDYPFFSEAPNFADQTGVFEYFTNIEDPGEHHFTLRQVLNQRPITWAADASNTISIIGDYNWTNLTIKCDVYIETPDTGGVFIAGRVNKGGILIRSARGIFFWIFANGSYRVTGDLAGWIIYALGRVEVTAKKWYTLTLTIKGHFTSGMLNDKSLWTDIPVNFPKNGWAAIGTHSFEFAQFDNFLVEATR
How it was run: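 Fluorogenic HMU-b-Gal hydrolysis (0.1 mM final, pH 5.2 citrate-phosphate with 1 mg/mL sodium taurocholate; carbonate stop buffer) measures mutant GALC activity after compound treatment of live 145M-Twi Twitcher brain cells stably carrying human GALC-G270D, with wild-type GALC line alongside; activation sought.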

activation, inactive:
COc1ccc(-c2cc(C(F)(F)F)nc(SCC(=O)N3CCC(C)CC3)n2)cc1 -8.14%, COc1ccc(CCNc2nccn(-c3ccc(C)c(C)c3)c2=O)cc1OC -9.03%, Cc1cc(C)cc(N2CC(c3nc(-c4cccc(Cl)c4)no3)CC2=O)c1 (centres undefined) -9.08%, Cc1ccc(CNCc2ccccc2)s1 2.97%, CCc1ccc(-n2c(=O)c3c4c(sc3n(Cc3ccc(C)cc3)c2=O)CCC4)cc1 13.7%, CC(=O)N1CCc2cc(S(=O)(=O)NC(Cc3ccccc3)C(=O)Nc3cccc(C)c3)ccc21 (centres undefined) 3.56%, Oc1c(C(c2ccc(F)cc2)N2CCOCC2)sc2nc(-c3ccco3)nn12 (centres undefined) -14%, O=C(Cn1ncc2c([nH]c3ccccc32)c1=O)Nc1cccc(C(F)(F)F)c1 4.05%, O=C1C(Nc2ccccc2)=CC(c2ccc(Br)cc2)N1c1ccccc1 (centres undefined) -17.4%, Cc1ccccc1CN1c2ccccc2S(=O)(=O)c2ccccc21 -4.39%, COc1ccccc1NC(=O)CN(C)S(=O)(=O)c1ccc2c(c1)c(=O)n(C)c(=O)n2C -11.1%, COc1ccc(C)cc1NC(=O)NCc1cccn1Cc1ccccc1 -12.5%, O=C(NCc1ccccc1)c1ccc2nc(CCc3ccccc3)oc2c1 -9.05%, Cc1ccc(CN2CCC(CNC(=O)Nc3cccc(Cl)c3C)C2)cc1 (centres undefined) -7.71%, Cc1ccc(CCNC(=O)NCc2noc3ccccc23)cc1 -19.7%, COc1ccc(N2CCN(C(CNC(=O)C(=O)NCCc3ccccc3)c3cccnc3)CC2)cc1 (centres undefined) 0.337%, COc1cc(OC)cc(-c2nc(-c3cccc(C)c3)no2)c1 -19.1%, CC1CCCN(S(=O)(=O)c2ccc3[nH]c(=O)cc(C(=O)NCCc4ccc(Cl)cc4)c3c2)C1 (centres undefined) -8.5%, COc1ccc(C)cc1NC(=O)CSc1nc2ccccc2nc1N1CCOCC1 -11.6%, O=C(COc1ccc(Cl)cc1)Nc1nnc2n1CCS2 -20.1%, CCOCCCN(C(=O)Nc1ccc(Cl)cc1)C1CCN(C(C)=O)CC1 -4.22%, Cc1c(CNC2CCCCCC2)c(C(=O)O)c(C)n1Cc1ccc(F)cc1Cl -16.2%, COc1ccc(S(=O)(=O)NCCc2csc3nc(-c4ccc(OC)c(OC)c4)nn23)cc1C -3.23%, O=C1CCSc2ccc(S(=O)(=O)Nc3ccc(Cl)c(C(F)(F)F)c3)cc2N1 -36.3%, CC(C)c1ccc(NC(=O)c2ccc(F)c(S(=O)(=O)N3CCCCCC3)c2)cc1 -7.63%, COc1ccc(CNC(=O)c2nc(Cn3nc(C)c(Br)c3C)no2)cc1OC -22.3%, COc1ccc(Cc2nc3ccc(C(=O)NCc4ccc(OC)cc4OC)cc3o2)cc1 3.82%, COc1cc(NC(=O)c2sc3nc4n(c(=O)c3c2C)CCCCC4)cc(OC)c1OC -3.87%, CCCCn1c(=O)c2oc3ccccc3c2n(CC(=O)Nc2cccc(Cl)c2C)c1=O 4.38%, CC(C)(C)c1ccc(C(=O)Nc2cc(-c3nc4ccccc4o3)ccc2Cl)cc1 -12.7%, CCc1ccccc1NC(=O)c1ccc2c(c1)CCN2S(C)(=O)=O -4.35%, CCc1ccccc1NC(=O)C1CCN(S(=O)(=O)c2ccc3[nH]c(=O)ccc3c2)CC1 -18.7%, Cc1ccc(C)c(NC(=O)CSc2nc(-c3ccccc3)cc(=O)[nH]2)c1 0.522%, COc1ccc(CCNC(=O)C(=O)Nc2ccc(C)cc2)cc1OC -11.2%, COc1ccc(N2CCN(S(=O)(=O)c3c(C)[nH]c(=O)[nH]c3=O)CC2)cc1 -10%, CCN(C(=O)c1cc2cc3ccc(OC)cc3nc2o1)c1cccc(C)c1 -13.1%, COc1ccc(-c2nc(C(=O)Nc3ccc(C(C)=O)cc3)nn2-c2cccc(Cl)c2)cc1 -10.3%, CC(=O)c1ccc(Oc2nc(C)nc3c2oc2ccccc23)cc1 -9.9%, O=C(O)Cc1csc(-c2ccc(Cl)cc2)n1 -10.5%, Cc1ccc(-c2nc(C)c(CCNC(=O)c3cccs3)s2)cc1 -34.4%, CC(=O)c1cccc(NC(=O)C2CCN(S(=O)(=O)c3ccc4c(c3)CCCN4C(C)=O)CC2)c1 -13.9%, CCc1cccc(NC(=O)c2cc3c(=O)n(Cc4ccccc4)ccc3nc2C)c1 -5.85%, CC(C)c1ccc(NC(=O)C2CCN(C(=O)c3ccc(F)cc3)CC2)cc1 -16.8%, COc1cc(C(=O)Nc2ccccc2-c2nc(-c3ccccc3)no2)cc(OC)c1OC -21%, Cc1ccc(CN2CCCn3nc(C(=O)NCCc4ccccc4C)cc3C2=O)cc1 -17.2%, Cc1c(C(=O)OCc2ccccc2)[nH]c2c1C(=O)CC(c1ccc(C(C)(C)C)cc1)C2 (centres undefined) -15%, Cc1ccc(-n2nc(C(=O)Nc3ccc(F)cc3F)c3c4ccccc4n(C)c3c2=O)cc1 -18.9%, Cc1cccc(N(C)c2nc3ccc(C(=O)c4ccccc4)cc3n3c(C)nnc23)c1 5.72%, CCN(CC)c1nc2ccccc2nc1C(=O)Nc1ccc(C(C)=O)cc1 -15.7%, Cc1ccc(C)c(NC(=O)CN(C)S(=O)(=O)c2cccc3nsnc23)c1 -10.6%, CCCCCOc1ccc(/C=C/C(=O)Nc2sc(C)c(C)c2C(=O)OCC)cc1OC -4.61%, COc1ccccc1NC(=O)Cn1cc(S(=O)(=O)Cc2ccccc2)c2ccccc21 -7.94%, CC(C)(C)C1CCc2c(sc(NC(=O)c3cc4ccccc4c(=O)o3)c2C(N)=O)C1 (centres undefined) -8.48%, Cc1ccc(C)c(NC(=O)Cn2c(=O)n(CCC(C)C)c(=O)c3cccnc32)c1 -8.18%, COc1ccc(NC(=O)Cn2nnc(C(=O)NCc3cccs3)c2N)cc1 -1.74%, Cc1ccc(NC(=O)CSc2nc(=O)n(Cc3cccnc3)c3c2CCC3)cc1F -6.04%, CCN(CC)CCNC(=O)Cn1ncc2c3ccccc3n(Cc3ccc(Cl)cc3)c2c1=O -10%, Cc1ccc(-c2csc(-c3nc(-c4ccc(Br)s4)cs3)n2)cc1 -13.9%, CCC(CC)C(=O)Nc1ccc2nc(SCC(=O)N3CCCC3)sc2c1 -9.19%, COc1ccc(Cc2nc3ccc(C(=O)NCc4ccccc4C)cc3o2)cc1 3.82%, COc1ccc(NC(=O)CN2C(=O)CC(c3ccc(C)c(C)c3)=Nc3ccccc32)cc1OC -18.2%, Cc1ccccc1C(=O)N1CC/C(=N\OS(=O)(=O)O)c2ccc(Cl)cc21 -23.5%, Cc1ccccc1Oc1nc2ccccn2c(=O)c1/C=C(\C#N)c1nc2ccccc2[nH]1 -14.9%, CCc1cccc(C)c1NC(=O)c1cc(S(=O)(=O)N(Cc2ccc(C(=O)OC)cc2)Cc2ccc(OC)c(OC)c2)ccc1F -8.76%
